Data taken from PubChem BioAssay AID1768 (National Center for Advancing Translational Sciences (NCATS), 2009).
In all, about 270,000 compounds went through this assay and about 620 (0.23%) were called active. Inconclusive means that the source gave no clear call. Such entries were picked first, then a sample of the others. The call rests on the fitted dose curve; in most records, active means well fitted inhibition curve with a large enough effect in the polarisation, with a control signal flat (not every such curve was filed as active); inconclusive means small, poorly fitted or top-dose-only effect, or effect the other way, or a change in a side signal; inactive means no such curve, though single readings can be large or run the other way; the % refers to the polarisation. Where the call is inconclusive, the potency comes from a doubtful curve fit. A note “side channel” means that the fit belongs to a control or component signal, not to the main read-out.

target: Menin (Homo sapiens) (UniProt O00255); test: qHTS Assay for Inhibitors Targeting the Menin-MLL Interaction in MLL Related Leukemias: Competition With Texas Red Labeled MLL-derived Mutant Peptide; details: fluorescence polarization; series mostly up to 61.6 µM
Potency means the concentration at half of the fitted maximal effect; tags describe the fitted curve by direction and shape or compound fluorescence and quenching.

Sequence of UniProt O00255 (O00255 whole entry, looked up): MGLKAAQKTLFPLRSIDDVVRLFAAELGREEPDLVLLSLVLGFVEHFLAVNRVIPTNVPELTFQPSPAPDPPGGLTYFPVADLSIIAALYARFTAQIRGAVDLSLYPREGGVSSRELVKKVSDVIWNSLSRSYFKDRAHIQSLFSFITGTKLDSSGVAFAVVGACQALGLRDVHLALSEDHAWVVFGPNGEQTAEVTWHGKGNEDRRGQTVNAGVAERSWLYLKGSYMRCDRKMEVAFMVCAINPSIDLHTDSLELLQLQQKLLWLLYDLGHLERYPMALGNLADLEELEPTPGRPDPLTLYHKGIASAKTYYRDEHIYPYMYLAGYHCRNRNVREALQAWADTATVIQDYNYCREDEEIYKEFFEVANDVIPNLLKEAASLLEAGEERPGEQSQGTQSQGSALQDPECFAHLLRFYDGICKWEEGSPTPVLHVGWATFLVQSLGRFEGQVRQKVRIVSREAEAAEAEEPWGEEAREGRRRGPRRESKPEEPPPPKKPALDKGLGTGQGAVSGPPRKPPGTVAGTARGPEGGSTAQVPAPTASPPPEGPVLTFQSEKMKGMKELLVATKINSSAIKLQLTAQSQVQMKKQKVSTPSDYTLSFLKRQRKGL

Row | SMILES | Potency
1 | COc1ccc2nc(Nc3ccccc3OC)sc2c1 | inconclusive: 14.1 µM [quencher, side channel, partial curve]
2 | Oc1ccc(C=Nc2cccc3ccccc23)c(O)c1 | inconclusive: 8.91 µM [quencher, side channel, partial curve]
3 | CCN(CC)c1ccc(/C=C2\SC(N)=NC2=O)cc1 | inconclusive: 28.2 µM [quencher, side channel, single point]
4 | Cc1ccc2cc(CCNC(=O)c3ccc(S(=O)(=O)N4CCCCC4)cc3)c(=O)[nH]c2c1 | inconclusive: 4.47 µM [inhibitor, single point]
5 | CCN(CC)S(=O)(=O)c1ccc(C(=O)NCCSc2c[nH]c3ccccc23)cc1 | inconclusive: 25.1 µM [quencher, side channel, partial curve]
6 | COc1cccc(C(=O)NC23CC4CC(CC(C4)C2)C3)c1 | inconclusive: 25.1 µM [inhibitor, partial curve]
7 | Cc1cc2cc(OCc3ccccc3)ccc2n1C | inconclusive: 39.8 µM [inhibitor, single point]
8 | CCCc1ccc(-c2cc(C(=O)NC3=NCCS3)c3ccccc3n2)cc1 | inconclusive: 12.6 µM [quencher, side channel, partial curve]
9 | O=C(Nc1ccnn1C1CCN(Cc2cccc(OCCO)c2)CC1)c1cccc(F)c1 | inconclusive: 10 µM [inhibitor, partial curve]
10 | O=C(N/N=C/c1ccc(O)c(O)c1)N/N=C/c1ccc(O)c(O)c1 | inconclusive: 35.5 µM [quencher, side channel, partial curve]
11 | O=C(/C=C/c1ccc(-c2ccccc2[N+](=O)[O-])o1)c1ccccc1 | inconclusive: 20 µM [quencher, side channel, partial curve]
12 | COc1ccc(OC)c(/C=C/c2ccc3cccc(O)c3n2)c1 | inconclusive: 15.8 µM [quencher, side channel, partial curve]
13 | COC(=O)c1cnc(SCc2ccc(Cl)cc2)n1C | inconclusive: 25.1 µM [fluorescent, side channel, single point]
14 | CC(=O)OC(C(=O)NC1CCCCC1)c1ccccc1F (stereo unspecified) | inconclusive: 12.6 µM [inhibitor, partial curve]
15 | CC1CCCCC1NC(=O)COc1ccc(-n2cnnn2)cc1 (stereo unspecified) | inconclusive: 8.91 µM [inhibitor, partial curve]
16 | NC(=O)c1cc(-c2ccccc2)sc1NC(=O)CN1CCCCC1 | inconclusive: 10 µM [quencher, side channel, partial curve]
17 | C=CCn1c(Cc2ccccc2)nc2c(cnn2-c2ccccc2)c1=O | inconclusive: 10 µM [fluorescent, side channel, partial curve]
18 | C#CCOCCOCCOCCNc1nc(N2CCN(C(=O)[C@H](Cc3ccc(O)cc3)n3cc([C@@H](N)C(C)CC)nn3)CC2)nc(N2CCN(C(=O)[C@H](Cc3cc4ccccc4[nH]3)n3cc([C@@H](N)CC(C)C)nn3)CC2)n1 (stereo partly specified) | inconclusive: 1.26 µM [fluorescent, side channel, full curve]

Row | SMILES | Potency
19 | O=C(NCc1ccc(/C=c2\sc3n(c2=O)CCN=3)o1)C(=O)Nc1ccccc1 | inconclusive: 12.6 µM [quencher, side channel, partial curve]
20 | CCN1CCN(C(=O)c2cc3cc4cc(OC)ccc4nc3s2)CC1 | inconclusive: 35.5 µM [inhibitor, partial curve, poor fit]
21 | c1csc(-c2cn3c(n2)SCC3)c1 | inconclusive: 20 µM [quencher, side channel, single point]
22 | COc1cc2c(cc1NC(=O)c1cccc(S(=O)(=O)N(C)C)c1)oc1ccccc12 | inconclusive: 3.16 µM [quencher, side channel, full curve, poor fit]
23 | O=C(CC1C(=O)NCCN1CC(c1ccccc1)c1ccccc1)NCCc1cn[nH]c1 (stereo unspecified) | inconclusive: 2.82 µM [inhibitor, full curve]
24 | O=c1[nH]c(-c2ccccc2F)nc2c1sc(=S)n2Cc1ccccc1 | inconclusive: 11.2 µM [quencher, side channel, partial curve]
25 | CCOc1ccc(/C(C)=N/N2C(=O)C(CC(=O)Nc3ccc(OC)cc3[N+](=O)[O-])SC2=Nc2cccc(C)c2C)cc1 (stereo unspecified) | inconclusive: 7.08 µM [quencher, side channel, partial curve]
26 | Nc1cc2c3c(cccc3c1)C(=O)N(CCN1CCCC1)C2=O | inactive
27 | O=C(NNc1ccc(C(F)(F)F)cc1[N+](=O)[O-])c1ccc(NS(=O)(=O)c2ccc(F)cc2)cc1 | inconclusive: 12.6 µM [quencher, side channel, partial curve]
28 | CCO/N=C1\C(=O)N(c2ccccc2)c2ccccc21 | inconclusive: 25.1 µM [fluorescent, side channel, single point]
29 | Cc1ccccc1C(=O)N1CCN(c2ccc([N+](=O)[O-])c(NCc3ccco3)c2)CC1 | inconclusive: 25.1 µM [inhibitor, single point]
30 | COc1ccc(CCNC(=O)CCCn2c(=O)c3cccn3c3cccnc32)c(OC)c1 | inconclusive: 39.8 µM [inhibitor, single point]
31 | CCS(=O)(=O)N1CCC(NC(=O)C(Cc2ccc(OC)c(OC)c2)NC(C)=O)CC1 (stereo unspecified) | inconclusive: 20 µM [inhibitor, partial curve]
32 | O=C(Nc1cc(Oc2ccccc2)cc([N+](=O)[O-])c1)C12CC3CC(C1)CC(n1cnc(Cl)n1)(C3)C2 | inconclusive: 3.98 µM [quencher, side channel, partial curve]
33 | O=S1(=O)CC(O)C(NCc2ccco2)C1 (stereo unspecified) | inactive
34 | COc1ccc2nc(NC(=O)c3ccc(Br)s3)sc2c1 | inconclusive: 12.6 µM [quencher, side channel, partial curve]
35 | O=C(CSc1nnnn1-c1cccnc1)Nc1ccccc1F | inactive
36 | COCCn1c(=O)c(-c2ccccc2)nc2cnc(Nc3cccc(OC)c3)nc21 | inconclusive: 3.98 µM [quencher, side channel, full curve, poor fit]
